# Experimental data taken from the supplement of paper PMC8728848.
# The list shows a part of the results.
# Legend:
# Experiment in all cases: glycan array binding signal (z-score within array); higher = stronger binding
# Settings in all cases: glycan notation: IUPAC condensed, linker removed
# [1] = target: GlcNAc(b1-3)Gal(b1-3)GalNAc
# Method in brief: (§1)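 Glycan array binding is given as a within-array Z-score, which can be read as non-binding when negative. The arrays, 3228 of them, came from the Consortium for Functional Glycomics database and were retained only where the protein sequence was available. Z-scores were averaged across arrays of the same protein sequence at different concentrations or buffers and across linkers.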
# GlcNAc(b1-3)Gal(b1-4)Glc = target: GlcNAc(b1-3)Gal(b1-4)Glc
# Method in brief: as §1
# [2] = target: GlcNAc(b1-3)Gal(b1-4)GlcNAc
# Method in brief: as §1
# [3] = target: GlcNAc(b1-3)Gal(b1-4)GlcNAc(b1-2)Man(a1-3)[GlcNAc(b1-3)Gal(b1-4)GlcNAc(b1-2)Man(a1-6)]Man(b1-4)GlcNAc(b1-4)GlcNAc
# Method in brief: as §1
# [4] = target: GlcNAc(b1-3)Gal(b1-4)GlcNAc(b1-2)Man(a1-3)[GlcNAc(b1-3)Gal(b1-4)GlcNAc(b1-2)Man(a1-6)]Man(b1-4)GlcNAc(b1-4)[Fuc(a1-6)]GlcNAc
# Method in brief: as §1
# [5] = target: GlcNAc(b1-3)Gal(b1-4)GlcNAc(b1-2)[GlcNAc(b1-3)Gal(b1-4)GlcNAc(b1-6)]Man(a1-6)[GlcNAc(b1-3)Gal(b1-4)GlcNAc(b1-2)Man(a1-3)]Man(b1-4)GlcNAc(b1-4)GlcNAc
# Method in brief: as §1
# [6] = target: GlcNAc(b1-3)Gal(b1-4)GlcNAc(b1-3)Gal(b1-4)GlcNAc
# Method in brief: as §1
# [7] = target: GlcNAc(b1-3)Gal(b1-4)GlcNAc(b1-3)Gal(b1-4)GlcNAc(b1-2)Man(a1-3)[GlcNAc(b1-3)Gal(b1-4)GlcNAc(b1-3)Gal(b1-4)GlcNAc(b1-2)Man(a1-6)]Man(b1-4)GlcNAc(b1-4)GlcNAc
# Method in brief: as §1
# [8] = target: GlcNAc(b1-3)Gal(b1-4)GlcNAc(b1-3)Gal(b1-4)GlcNAc(b1-2)Man(a1-3)[GlcNAc(b1-3)Gal(b1-4)GlcNAc(b1-3)Gal(b1-4)GlcNAc(b1-2)Man(a1-6)]Man(b1-4)GlcNAc(b1-4)[Fuc(a1-6)]GlcNAc
# Method in brief: as §1
# [9] = target: GlcNAc(b1-3)Gal(b1-4)GlcNAc(b1-3)Gal(b1-4)GlcNAc(b1-2)[GlcNAc(b1-3)Gal(b1-4)GlcNAc(b1-3)Gal(b1-4)GlcNAc(b1-6)]Man(a1-6)[GlcNAc(b1-3)Gal(b1-4)GlcNAc(b1-3)Gal(b1-4)GlcNAc(b1-2)Man(a1-3)]Man(b1-4)GlcNAc(b1-4)[Fuc(a1-6)]GlcNAc
# Method in brief: as §1
# [10] = target: GlcNAc(b1-3)Gal(b1-4)GlcNAc(b1-3)Gal(b1-4)GlcNAc(b1-3)Gal(b1-4)GlcNAc(b1-2)Man(a1-3)[GlcNAc(b1-3)Gal(b1-4)GlcNAc(b1-3)Gal(b1-4)GlcNAc(b1-3)Gal(b1-4)GlcNAc(b1-2)Man(a1-6)]Man(b1-4)GlcNAc(b1-4)GlcNAc
# Method in brief: as §1
# [11] = target: GlcNAc(b1-3)Gal(b1-4)GlcNAc(b1-3)Gal(b1-4)GlcNAc(b1-3)Gal(b1-4)GlcNAc(b1-2)Man(a1-3)[GlcNAc(b1-3)Gal(b1-4)GlcNAc(b1-3)Gal(b1-4)GlcNAc(b1-3)Gal(b1-4)GlcNAc(b1-2)Man(a1-6)]Man(b1-4)GlcNAc(b1-4)[Fuc(a1-6)]GlcNAc
# Method in brief: as §1
# [12] = target: GlcNAc(b1-3)Gal(b1-4)GlcNAc(b1-3)Gal(b1-4)GlcNAc(b1-3)Gal(b1-4)GlcNAc(b1-2)[GlcNAc(b1-3)Gal(b1-4)GlcNAc(b1-3)Gal(b1-4)GlcNAc(b1-3)Gal(b1-4)GlcNAc(b1-6)]Man(a1-6)[GlcNAc(b1-3)Gal(b1-4)GlcNAc(b1-3)Gal(b1-4)GlcNAc(b1-3)Gal(b1-4)GlcNAc(b1-2)Man(a1-3)]Man(b1-4)GlcNAc(b1-4)[Fuc(a1-6)]GlcNAc
# Method in brief: as §1
# [13] = target: GlcNAc(b1-3)Gal(b1-4)GlcNAc(b1-3)Gal(b1-4)GlcNAc(b1-3)Gal(b1-4)GlcNAc(b1-3)Gal(b1-4)GlcNAc(b1-2)Man(a1-3)[GlcNAc(b1-3)Gal(b1-4)GlcNAc(b1-3)Gal(b1-4)GlcNAc(b1-3)Gal(b1-4)GlcNAc(b1-3)Gal(b1-4)GlcNAc(b1-2)Man(a1-6)]Man(b1-4)GlcNAc(b1-4)GlcNAc
# Method in brief: as §1
# [14] = target: GlcNAc(b1-3)Gal(b1-4)GlcNAc(b1-3)Gal(b1-4)GlcNAc(b1-3)Gal(b1-4)GlcNAc(b1-3)Gal(b1-4)GlcNAc(b1-2)Man(a1-3)[GlcNAc(b1-3)Gal(b1-4)GlcNAc(b1-3)Gal(b1-4)GlcNAc(b1-3)Gal(b1-4)GlcNAc(b1-3)Gal(b1-4)GlcNAc(b1-2)Man(a1-6)]Man(b1-4)GlcNAc(b1-4)[Fuc(a1-6)]GlcNAc
# Method in brief: as §1
# [15] = target: GlcNAc(b1-3)Gal(b1-4)GlcNAc(b1-3)Gal(b1-4)GlcNAc(b1-3)Gal(b1-4)GlcNAc(b1-3)Gal(b1-4)GlcNAc(b1-2)[GlcNAc(b1-3)Gal(b1-4)GlcNAc(b1-3)Gal(b1-4)GlcNAc(b1-3)Gal(b1-4)GlcNAc(b1-3)Gal(b1-4)GlcNAc(b1-6)]Man(a1-6)[GlcNAc(b1-3)Gal(b1-4)GlcNAc(b1-3)Gal(b1-4)GlcNAc(b1-3)Gal(b1-4)GlcNAc(b1-3)Gal(b1-4)GlcNAc(b1-2)Man(a1-3)]Man(b1-4)GlcNAc(b1-4)[Fuc(a1-6)]GlcNAc
# Method in brief: as §1
# [16] = target: GlcNAc(b1-3)Gal(b1-4)GlcNAc(b1-3)Gal(b1-4)GlcNAc(b1-3)GalNAc
# Method in brief: as §1
# [17] = target: GlcNAc(b1-3)Gal(b1-4)GlcNAc(b1-3)GalNAc
# Method in brief: as §1
# [18] = target: GlcNAc(b1-3)Gal(b1-4)GlcNAc(b1-3)[GlcNAc(b1-3)Gal(b1-4)GlcNAc(b1-3)]GalNAc
# Method in brief: as §1
# [19] = target: GlcNAc(b1-3)Gal(b1-4)GlcNAc(b1-6)[Gal(b1-3)]GalNAc
# Method in brief: as §1
# [20] = target: GlcNAc(b1-3)Gal(b1-4)GlcNAc(b1-6)[GlcNAc(b1-3)Gal(b1-3)]GalNAc
# Method in brief: as §1
# [21] = target: GlcNAc(b1-3)Gal(b1-4)GlcNAc(b1-6)[GlcNAc(b1-3)]Gal(b1-4)GlcNAc
# Method in brief: as §1
# GlcNAc(b1-3)GalNAc = target: GlcNAc(b1-3)GalNAc
# Method in brief: as §1
# GlcNAc(b1-3)Man = target: GlcNAc(b1-3)Man
# Method in brief: as §1
# [22] = target: GlcNAc(b1-3)[GlcNAc(b1-4)][GlcNAc(b1-6)]GlcNAc
# Method in brief: as §1
# [23] = target: GlcNAc(b1-3)[GlcNAc(b1-6)]Gal(b1-4)GlcNAc
# Method in brief: as §1
# [24] = target: GlcNAc(b1-3)[GlcNAc(b1-6)]GalNAc
# Method in brief: as §1
# [25] = target: GlcNAc(b1-4)Gal(b1-4)GlcNAc
# Method in brief: as §1
# GlcNAc(b1-4)GlcNAc = target: GlcNAc(b1-4)GlcNAc
# Method in brief: as §1
# [26] = target: GlcNAc(b1-4)GlcNAc(b1-4)GlcNAc
# Method in brief: as §1
# [27] = target: GlcNAc(b1-4)GlcNAc(b1-4)GlcNAc(b1-4)GlcNAc(b1-4)GlcNAc
# Method in brief: as §1
# [28] = target: GlcNAc(b1-4)GlcNAc(b1-4)GlcNAc(b1-4)GlcNAc(b1-4)GlcNAc(b1-4)GlcNAc
# Method in brief: as §1
# [29] = target: GlcNAc(b1-4)[GlcNAc(b1-6)]GalNAc
# Method in brief: as §1
# [30] = target: GlcNAc(b1-6)Gal(b1-4)GlcNAc
# Method in brief: as §1
# GlcNAc(b1-6)GalNAc = target: GlcNAc(b1-6)GalNAc
# Method in brief: as §1
# [31] = target: GlcNAc6S(b1-3)Gal(b1-4)GlcNAc
# Method in brief: as §1
# Kdn(a2-3)Gal(b1-3)GalNAc = target: Kdn(a2-3)Gal(b1-3)GalNAc
# Method in brief: as §1
binder,measurement,setting,value
PkBDPgamma (Plasmodium knowlesi) (protein) SAINQIFLQNNVMDKCNDKRKRGERDWDCPTEKDVCIPDRRYQLCMMEITNLVDTDTHFHSDIIFRKSYSRRRLIYDVGGRGDLLLKKYNNVYSEDLCKDIKWSLQDFGDIIMGTDMEGIGYSLVVQNNLRSIFGTGTSAELDRKKWWNDHKKDIWKAMILSVKEKNRYSAWNCKEDVQIKVEPQIYRWIREWGRDYMSEFREQRRKLNEKCEDKLYYSTMLICTLPPCNNACKSYDEWITGKKKQWDVLSTKFSSVKKAQKIETENIARAYDILKQELNGFNEVTFENEINKRDKLYNYFCVCIVQEARKNTQENVKNVGSGVESKAPSSNPINEAVKSSSGEGKVQEDSAHRSVNEGEGKSSTNEADPGSQPGAAASGGGSGGGTGGGVDLAPQMLRELQETNAALQDVRELLRQQVKEITFLKNTVMECDACGGPLDRNLPPLAPLGPTGGWSHPQFEK,glycan array binding signal (z-score),[1],-0.239
same,glycan array binding signal (z-score),GlcNAc(b1-3)Gal(b1-4)Glc,0.064
same,glycan array binding signal (z-score),[2],-0.259
same,glycan array binding signal (z-score),[3],0.013
same,glycan array binding signal (z-score),[4],0.242
same,glycan array binding signal (z-score),[5],0.325
same,glycan array binding signal (z-score),[6],-0.185
same,glycan array binding signal (z-score),[7],-0.087
same,glycan array binding signal (z-score),[8],0.811
same,glycan array binding signal (z-score),[9],0.014
same,glycan array binding signal (z-score),[10],0.518
same,glycan array binding signal (z-score),[11],0.128
same,glycan array binding signal (z-score),[12],-0.196
same,glycan array binding signal (z-score),[13],0.208
same,glycan array binding signal (z-score),[14],-0.009
same,glycan array binding signal (z-score),[15],2.27
same,glycan array binding signal (z-score),[16],-0.202
same,glycan array binding signal (z-score),[17],-0.025
same,glycan array binding signal (z-score),[18],0.295
same,glycan array binding signal (z-score),[19],0.103
same,glycan array binding signal (z-score),[20],0.068
same,glycan array binding signal (z-score),[21],-0.12
same,glycan array binding signal (z-score),GlcNAc(b1-3)GalNAc,-0.356
same,glycan array binding signal (z-score),GlcNAc(b1-3)Man,-0.084
same,glycan array binding signal (z-score),[22],-0.697
same,glycan array binding signal (z-score),[23],-0.061
same,glycan array binding signal (z-score),[24],-0.331
same,glycan array binding signal (z-score),[25],-0.134
same,glycan array binding signal (z-score),GlcNAc(b1-4)GlcNAc,0.577
same,glycan array binding signal (z-score),[26],-0.565
same,glycan array binding signal (z-score),[27],-0.214
same,glycan array binding signal (z-score),[28],-0.371
same,glycan array binding signal (z-score),[29],0.123
same,glycan array binding signal (z-score),[30],0.306
same,glycan array binding signal (z-score),GlcNAc(b1-6)GalNAc,0.044
same,glycan array binding signal (z-score),[31],0.104
same,glycan array binding signal (z-score),Kdn(a2-3)Gal(b1-3)GalNAc,0.008
